Measurements from PubChem BioAssay AID1508642 (National Center for Advancing Translational Sciences (NCATS), 2021).
The whole screen tested about 43,000 compounds, of which about 200 (0.47%) were called active. About 12% were inconclusive and are not listed. The call rests on the fitted dose curve; in most records, active means well fitted cell-killing curve with a large enough effect; inconclusive means small, poorly fitted or top-dose-only effect, or effect the other way; inactive means flat fitted curve, though single readings scatter. This is one part of the list.

Assay: Cell viability qHTS assay in S16 Pmp22-F2sN cells; further: nearly all actives have a fitted effect of over 65% in size
Conditions: S16 Pmp22-F2sN Schwann cells (luciferase reporters placed in the Pmp22 gene) viability, CellTiter-Glo, 24 h; series mostly up to 57.5 µM; activity change, negative = cytotoxicity: at the top concentration
In short: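 CellTiter-Glo counter-screen, qHTS, 1536-well. Cells: S16(c9) Pmp22-F2sN, 500-1,000/well in DMEM + 10% FBS. Cpd 23 nL pin transfer, 24 h, 37C/5% CO2. Read: luminescence, CCD imager.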
On the % scale 0 is the no-effect control and ±100 the full control effect.

Row | SMILES | activity change, negative = cytotoxicity
1 | COc1ccc(Cl)cc1-n1c(/C=C/c2cccc3ccccc23)nc2ccccc2c1=O | inactive: 5.52%
2 | CCOc1cccc(C(c2c(C)n(C)n(-c3ccccc3)c2=O)c2c(C)n(C)n(-c3ccccc3)c2=O)c1OC | inactive: 13.4%
3 | CCOC(=O)c1c(NC(=O)COc2cc(C)ccc2C(C)C)sc(C)c1C | inactive: -3.29%
4 | CCOc1ccccc1NC(=O)Cn1c(=O)n(-c2ccc(F)cc2)c(=O)c2sc3ccccc3c21 | inactive: 10.5%
5 | COc1ccc(CCNC(=O)CCCn2c(=O)c3ccccc3n(CC(=O)Nc3cc(Cl)ccc3C)c2=O)cc1OC | inactive: 20.1%
6 | CCOc1ccc(NC(=O)c2nn(C)c3c2CS(=O)(=O)c2ccccc2-3)cc1 | inactive: 3.67%
7 | CCOC(=O)c1ccc(N2C(=O)c3n[nH]c(-c4ccco4)c3C2c2ccc(O)cc2)cc1 (stereo unspecified) | inactive: -0.632%
8 | CCCn1cc(S(=O)(=O)c2ccccc2)c(=O)c2cc(F)c(N3CCCC(C)C3)cc21 (stereo unspecified) | inactive: -1.39%
9 | CCCN(CCC)CCCNC(=O)C1CCN(S(=O)(=O)CC)CC1 | inactive: 19.9%
10 | Cc1ccc(S(=O)(=O)c2cc3cc(C(=O)O)ccc3oc2=O)cc1 | inactive: 13.3%
11 | Cc1ccc(CSCC(=O)N2CCN(c3ccccc3F)CC2)cc1 | inactive: 4.6%
12 | Cc1ccc(S(=O)(=O)CC(=O)Nc2sc3c(c2C#N)CCCC3)cc1 | inactive: 1.75%
13 | CCn1cc(CCC(=O)NCc2ccccc2OC)c2ccccc21 | inactive: -6.16%
14 | CC1=C(C(=O)Nc2ccccc2)C(c2cccnc2)n2nc(SCc3ccccc3Cl)nc2N1 (stereo unspecified) | inactive: -2.27%
15 | CCOC(=O)Cn1c(=O)n(C2CCCCC2)c2nc(-c3cccc(F)c3)nc(C(N)=O)c21 | inactive: 19.5%
16 | Cc1ccccc1NC(=O)Cn1c(=O)oc2cc(Br)ccc21 | inactive: -2.84%
17 | COc1ccc(N(CC(=O)Nc2cccc(Cl)c2C)S(=O)(=O)c2c(C)nn(C)c2C)cc1 | inactive: 2.49%
18 | Cc1ccc(NC(=O)c2cccc3c2C(=O)N(C2CCCCC2)C3)c(C)c1 | inactive: 5.26%
19 | COc1cccc(Cn2c(CNC(=O)Cc3cccc(C)c3)nc3cccnc32)c1 | inactive: 10.6%
20 | CCCCN(CC)CCCNC(=O)c1nn(C)c2c1CS(=O)(=O)c1ccccc1-2 | inactive: 4.2%
21 | CCc1c(C)sc(NC(=O)c2cc(-c3cccc(Cl)c3)on2)c1C#N | inactive: -7.38%

Row | SMILES | activity change, negative = cytotoxicity
22 | CCOC(=O)C1CCCN(c2cc(C)nc3c(-c4ccccc4OC)c(C)nn23)C1 (stereo unspecified) | inactive: 3.17%
23 | Cc1c(C)n(C)c2ccc(C(=O)NCCCN3CCCCC3C)cc12 (stereo unspecified) | inactive: -19.1%
24 | O=C(c1cc2c(s1)-c1ccccc1OC2)N1CCN(c2ccccc2F)CC1 | inactive: 12.7%
25 | CCOc1ccc(CNC(=O)c2ccc(NC(=O)N3CCSc4ncccc43)cc2)cc1OC | inactive: -4.28%
26 | CN(C)c1cc2c(cc1NC(=O)c1ccc(F)cc1)n(C)c(=O)n2C | inactive: -0.938%
27 | O=C(NCCCc1nc2ccccc2n1Cc1ccccc1)C1CCCCC1 | inactive: 1.13%
28 | Cc1ccccc1OCc1ccc(-c2nc(C#N)c(N3CCN(c4ccccc4)CC3)o2)o1 | inactive: 1.43%
29 | Cc1cccc(-c2nnn3c2nc(NCc2ccccc2)c2ccccc23)c1 | inactive: 2.08%
30 | CC(C)CCNC(=O)C1CCN(S(=O)(=O)c2cccc3nsnc23)CC1 | inactive: -4.43%
31 | CNC(=O)C1CCN(Cc2cc3ccccc3n2Cc2cccc(C)c2)CC1 | inactive: -8.31%
32 | CCc1ccc(-c2cc(C)no2)cc1S(=O)(=O)Nc1ccc(C)cn1 | inactive: -2.14%
33 | CC(=O)c1ccc(NC(=O)CSc2nnc(NC(=O)Nc3ccccc3)s2)cc1 | inactive: -2.66%
34 | COc1ccc(Cl)cc1NC(=O)c1ncn(-c2ccccc2)n1 | inactive: -29.1%
35 | COc1ccc(OC)c(NC(=O)Cc2c(C)n(C(=O)c3ccc(Cl)cc3)c3ccc(OC)cc23)c1 | inactive: -18.3%
36 | CCOC(=O)c1cnc2ccc(C(=O)OC)cc2c1Nc1ccc(N2CCOCC2)cc1 | inactive: 0.399%
37 | CSCCC(NS(=O)(=O)c1cccs1)C(=O)Nc1ccc(C)c(Cl)c1 (stereo unspecified) | inactive: 5.1%
38 | CCOc1ccc(CCNC(=O)c2ccc(CS(=O)(=O)c3ccccc3C)o2)cc1OCC | inactive: 1.43%
39 | CCc1ccccc1Nc1ncnc2c1cnn2-c1ccc(Cl)cc1 | inactive: 2.65%
40 | CCc1ccccc1NC(=O)c1sc2nc3n(c(=O)c2c1C)CCC3 | inactive: -4.21%
41 | COc1cc(CN(C(=O)c2ccc(OC(C)C)cc2)C2CCS(=O)(=O)C2)cc(OC)c1OC (stereo unspecified) | inactive: -9.97%
42 | CC(=O)c1cccc(NC(=O)CN2C(=O)c3cccnc3Sc3ccccc32)c1 | inactive: -5.86%

Row | SMILES | activity change, negative = cytotoxicity
43 | CCc1ccc(NC(=O)Cn2c(=O)n(-c3ccccc3)c(=O)c3ccc(C(=O)NCc4ccc5c(c4)OCO5)cc32)cc1 | inactive: 5.42%
44 | Cc1ccc(C)c(Cn2c(=O)n(Cc3ccco3)c(=O)c3oc4ccccc4c32)c1 | inactive: 14.9%
45 | CCOC(=O)c1ccccc1NC(=O)CSc1cc(C)[nH]c(=O)n1 | inactive: -4.53%
46 | COc1ccc(Cl)cc1NC(=O)CCN1C(=O)c2ccccc2Sc2ncccc21 | inactive: 0.0398%
47 | CC(=O)N1CCc2cc(S(=O)(=O)NC(CC(C)C)C(=O)NCCc3ccccc3)ccc21 (stereo unspecified) | inactive: -1.32%
48 | COc1cc(OC)c(NC(=O)N2CCN3CCCCC3C2)cc1Cl (stereo unspecified) | inactive: 2.79%
49 | CC(C)(C)c1cc(C(C)(C)C)c2oc(=O)c(-c3nc4ccc(C(=O)O)cc4[nH]3)cc2c1 | inactive: 19.1%
50 | Cc1cc(C)c2c(=O)cc(CSc3nnc(-c4ccccc4)n3C)[nH]c2c1 | inactive: -9.59%
51 | Cc1ccc(Nc2nc3ccccc3c3nnc(C)n23)cc1Cl | inactive: 0.631%
52 | COc1cc(-c2nnc(SCC(=O)Oc3ccccc3)o2)cc(OC)c1OC | inactive: 10.1%
53 | COc1ccc(OC)c(Nc2ncc3c(n2)CCN(Cc2cc(OC)c(OC)c(OC)c2)C3)c1 | inactive: 1.25%
54 | CC(C)C(=O)N1c2nc(C(C)C)nn2C2(CCCCC2)[C@@H]2CCCC[C@@H]21 | inactive: -1.77%
55 | COc1ccc(CCN2C(=O)N(c3ccc(F)cc3)C(=O)C2CC(=O)Nc2ccc(OC)cc2)cc1 (stereo unspecified) | inactive: -28.8%
56 | CCOc1ccc(C(=O)NCC(c2ccc3c(c2)OCO3)N2CCN(c3ccc(F)cc3)CC2)cc1 (stereo unspecified) | inactive: 3.75%
57 | CCCC(CCC)C(=O)Nc1cccc(-c2nc3cccnc3s2)c1 | inactive: 25.1%
58 | CCc1ccccc1NC(=O)N1CCC2(CC1)Oc1ccccc1C(=O)N2Cc1ccccc1F | inactive: 8.66%
59 | COc1ccccc1Nc1ncc(C(=O)Nc2ccc(OC)c(OC)c2)c2ccccc12 | inactive: -1.57%
60 | O=C(c1ccc2c(c1)N(Cc1ccccc1)C(=O)c1ccccc1S2=O)N1CCC(Cc2ccccc2)CC1 (stereo unspecified) | inactive: -9.64%
61 | Cc1ccc2c(c1)c(=O)c(S(=O)(=O)c1ccc(C)c(C)c1)cn2CC(=O)Nc1ccccc1 | inactive: 4.56%
